According to PubChem BioAssay AID1745845 (National Center for Advancing Translational Sciences (NCATS), 2022):
“And” between values parts separate entries of the source, which are not always exact repeats. Identical values can stand only once. Screen size: about 360,000 compounds; about 2,600 (0.72%) were called active. The shares of active, inactive and inconclusive entries below differ from those in the screen. Calls follow the shape of the dose curve; as a rule, active = well fitted inhibition curve with a large enough effect; inconclusive = small, poorly fitted or top-dose-only effect; inactive = no such curve, though single readings can be large or run the other way. Potencies beside an inconclusive call are fits to weak or partial responses and may not hold up.

assay: Primary qHTS for Inhibitors of ATXN expression; conditions: HEK-293 ATXN2-luciferase reporter, luminescence, 24 h; series mostly up to 57 µM; also: nearly all actives have a fitted effect of over 55% in size
Outline: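 qHTS (up to 57 uM final) was run with 24 h compound exposure of reporter cells at 37 °C. Each well was multiplexed: SteadyGlo luminescence measured ATXN2-luciferase expression after a fluorogenic Gly-Phe-AFC viability readout (25 uM final).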
Potency is read from the fitted curve at half-maximal effect; tags tell the direction and shape of the fitted curve.

SMILES	Potency
OC1CCCN(Cc2c3ccccc3cc3ccccc23)C1 (configuration not stated)	active: 17.8 µM
CCCCOc1ccccc1NC(=O)c1scc2c1OCCO2	inconclusive: 8.44 µM [inhibitor, full curve, poor fit]
COc1cccc(-n2c(=O)c3sc4ccccc4c3n(CC(=O)Nc3ccccc3C)c2=O)c1	inactive
CN(C)CCCN=Cc1c(-c2ccccc2)[nH]n(-c2nc3ccccc3s2)c1=O	inconclusive: 8.91 µM [inhibitor, partial curve]
Cc1cccc(Cc2c(C)nc3nc(SCC(=O)NCc4ccco4)nn3c2C)c1	inactive
O=C(O)c1ccc(NC2=C/C(=N/S(=O)(=O)c3ccccc3)c3ccccc3C2=O)cc1	active: 35.5 µM
CCC(CC)N1CCN(S(=O)(=O)c2ccc(OC)cc2)CC1	inactive
C/C(=N\NC(=O)CSCc1ccc([N+](=O)[O-])cc1)c1ccccc1O	active: 17.8 µM
CCOC(=O)c1c(C)[nH]c(C(=O)OCc2ccc([N+](=O)[O-])cc2)c1C	inactive
CC1=C(N2CCOCC2)CCC1=O	inactive
O=C1Nc2ccc(Cl)cc2[C@@](C#CC2CC2)(C(F)(F)F)O1	inconclusive: 28.2 µM [inhibitor, partial curve, poor fit]
CN(C)CCCNC(=O)C[C@H]1C[C@H](C(=O)N2CCCCC2)[C@@]2(CCc3ccccc3)c3[nH]c4cc(-c5ccco5)ccc4c3CCN2C1=O	inconclusive: 25.1 µM [inhibitor, single point]
O=C(N/N=C/c1ccco1)C(O)C(O)C(=O)N/N=C/c1ccco1 (configuration not stated)	inactive
CC(=O)c1cccc(NC(=O)c2cc3c(s2)-c2c(C)cccc2OC3)c1	inconclusive: 0.891 µM [inhibitor, partial curve, poor fit]
COc1ccc(-c2ccc(OC)cc2)cc1	inactive
Cc1cc(C)cc(C(=O)N(NC(=O)Nc2ccc(Cl)cc2)C(C)(C)C)c1	inconclusive: 35.5 µM [inhibitor, single point]
Cc1ccc2cc(CN(Cc3ccco3)S(=O)(=O)c3c(C)ccc4nsnc34)c(=O)[nH]c2c1	inconclusive: 39.8 µM [inhibitor, partial curve, poor fit]
CCc1ccc(/C=N\NC(=O)c2ccc(Br)o2)s1	inactive
CCN(Cc1ccccc1)S(=O)(=O)c1ccc(C(=O)N2CCN(c3nc4ccccc4s3)CC2)cc1	inconclusive: 3.55 µM [inhibitor, partial curve, poor fit]
Cc1cc(=O)n(CC(=O)N2CCN(c3ccc(F)cc3)CC2)c2c1c(C)nn2C	inconclusive: 28.2 µM [inhibitor, partial curve]
Cc1ccccc1Oc1cc(NC(=O)CCCn2nc(C)c([N+](=O)[O-])c2C)cc([N+](=O)[O-])c1	inconclusive: 31.6 µM [inhibitor, partial curve]
CC(=O)c1ccc(N2CCN(C(=O)CCS(=O)(=O)c3ccc4c(c3)oc(=O)n4C)CC2)cc1	inactive
Cc1cc(C)c2sc(N(CCCN(C)C)C(=O)COc3ccc(Cl)cc3)nc2c1	inconclusive: 25.1 µM [inhibitor, single point]

SMILES	Potency
CS(=O)(=O)N1CCc2cc(-c3csc(NCC4CCCO4)n3)ccc21 (configuration not stated)	inactive
CC(C)(C)c1ccc(CC(=O)N2CCC2(C)C(=O)Nc2cccc3cccnc23)cc1 (configuration not stated)	inconclusive: 39.8 µM [inhibitor, single point]
Cc1ccc(C(=O)C[n+]2cc(-c3ccc(C)cc3)n3c2CCCCC3)cc1	inconclusive: 39.8 µM [inhibitor, single point]
COc1cc(-c2cnc3c(NC=O)cc(-c4cccc(C(F)(F)F)c4)cn23)cc(OC)c1OC	active: 28.2 µM
Cc1ccc(Cl)c(OCCCCN(C)Cc2ccccc2)c1	inconclusive: 31.6 µM [inhibitor, single point]
COc1cccc(-c2ccc(SCc3ccccn3)nn2)c1	inactive
O=S(=O)(Nc1ccc(-c2ccc(N3CCCC3)nn2)cc1)c1cc(F)ccc1F	inactive
COCCCNC(=S)N/N=C/c1cccc(OC)c1O	inconclusive: 0.355 µM [inhibitor, partial curve, poor fit]
O=C1/C(=C/c2c[nH]c3ccccc23)CCC/C1=C\c1c[nH]c2ccccc12	inconclusive: 25.1 µM [inhibitor, partial curve, poor fit]
Cc1ccc2[nH]c(=O)c3cc(C(=O)NCCc4ccc(Cl)cc4)sc3c2c1	inactive
COc1ccc(C)cc1NC(=O)c1ccc2c(c1)nnn2C1CCCC1	inactive
CN(CC(=O)Nc1ccc(Cl)c(C(F)(F)F)c1)C(=O)c1cccnc1Sc1ccccc1	inconclusive: 31.6 µM [inhibitor, partial curve, poor fit]
COc1ccccc1-n1c(-c2cn(C)nc2C)n[nH]c1=S	inactive
C/C(=N\Nc1ccc(Cl)c(Cl)c1)c1ccc(-n2ccnc2)cc1	inconclusive: 39.8 µM [inhibitor, single point]
Cc1ccc(C(C)C)cc1OCC(=O)NC1CCCCCCC1	inactive
CC(C)(C)NC(=O)c1oc2ccccc2c1NC(=O)c1ccc(F)cc1	inactive
CC(C)CCn1c(NCCc2ccccc2)nc2c1c(=O)n(C)c(=O)n2C	inconclusive: 28.2 µM [inhibitor, partial curve, poor fit]
O=C(CNc1ccc(Br)cc1)NC(=O)NC1CCCCC1	inactive
C=CC[C@@H](CC(=O)N(CCO)Cc1ccccc1)C(=O)NC[C@H](OC(=O)[C@@H](CC=C)Cc1ccc(F)cc1)c1ccccc1	inconclusive: 31.6 µM [inhibitor, single point]
CCOC(=O)c1ccc(NC(=O)c2ccc3c(c2)C(=O)N(Cc2cccnc2)C3=O)cc1	inactive
CCS(=O)(=O)c1ccc2oc(SCC(=O)NC(C)C3CC4CCC3C4)nc2c1 (configuration not stated)	inactive
COc1ccc(C(=O)NNC(=S)NC(=O)c2cccs2)cc1	inconclusive: 12.6 µM [inhibitor, partial curve]
COc1ccc(CN2C(=O)C(NC(=O)c3ccccc3OC)(C(F)(F)F)N=C2c2ccccc2)cc1 (configuration not stated)	inactive

SMILES	Potency
CCOc1ccc(S(=O)(=O)N2CCCCC2)cc1NC(=O)Cc1cccs1	inactive
O=C(CSc1ccc(Cl)cc1)Nc1cccc(NC(=O)c2ccco2)c1	inconclusive: 39.8 µM [inhibitor, single point]
COc1ccc(OCC(O)Cn2c(Nc3cccc(C)c3)nc3c2c(=O)n(C)c(=O)n3C)cc1 (configuration not stated)	inactive
CC(=O)N1CCc2c(sc3c2c(=O)n(Cc2ccccc2)c(=O)n3CC(=O)Nc2ccc(C)c(F)c2)C1	inactive
Cc1ccc(Cn2nc(C)c(NC(=O)c3cc(-c4ccco4)on3)c2C)cc1	inconclusive: 25.1 µM [inhibitor, partial curve, poor fit]
CCc1nnc(NC(=O)CSc2nnc(C3CCCCC3)n2-c2cccc(Cl)c2)s1	inactive
CCCCCn1c(=N)n(CC(O)COc2ccccc2OC)c2ccccc21 (configuration not stated)	inconclusive: 31.6 µM [inhibitor, partial curve, poor fit] and active: 28.2 µM
Cc1cccc(C)c1OCC(=O)N[C@@H](Cc1ccccc1)[C@@H](O)C[C@H](Cc1ccccc1)NC(=O)[C@H](C(C)C)N1CCCNC1=O	inconclusive: 34.3 µM [inhibitor, single point] and inconclusive: 39.8 µM [inhibitor, single point]
Cc1c(C(=O)NCc2ccc(Cl)c(Cl)c2)sc(=O)n1Cc1ccc(S(C)(=O)=O)cc1	inconclusive: 15.8 µM [inhibitor, partial curve, poor fit]
CC(C)COc1ccccc1C1CC(=O)Nc2cc3c(cc21)OCO3 (configuration not stated)	inconclusive: 7.94 µM [inhibitor, full curve]
O=S(=O)(c1ccc2ccccc2c1)N1CCN(C(=S)Nc2ccc(F)c(Cl)c2)CC1	inconclusive: 22.4 µM [inhibitor, partial curve, poor fit]
COc1cccc(-c2nnc(NC(=O)c3cccc(F)c3)o2)c1	inconclusive: 15.8 µM [inhibitor, partial curve, poor fit]
CCN(CC)S(=O)(=O)c1cccc(NC(=O)/C=C/c2cccc([N+](=O)[O-])c2)c1	inconclusive: 25.1 µM [inhibitor, single point]
Clc1ccccc1Cc1cn2cc(-c3ccccc3)nc2s1	inactive
CCCCOc1ccc(C2=NC(c3ccccc3)=Nc3ccc(OC)cc3N2)cc1	inactive
Cc1ccc(C(=O)c2coc3c2C(=O)C(=O)c2ccccc2-3)cc1	inconclusive: 39.8 µM [inhibitor, single point]
C=C1C(=CC=C2CCCC3(C)[C@@H]([C@H](C)C=CC=CC(O)(CC)CC)CC[C@@H]23)C[C@@H](O)C[C@@H]1O (some centres not stated)	inconclusive: 24.3 µM [inhibitor, partial curve]
CCN(CC)S(=O)(=O)c1cccc(NC(=O)CCSc2ccc(Cl)cc2)c1	inconclusive: 25.1 µM [inhibitor, single point]
Clc1ccc(C(c2ccccc2Cl)C(Cl)Cl)cc1 (configuration not stated)	inconclusive: 25.1 µM [inhibitor, partial curve, poor fit] and inconclusive: 24.3 µM [inhibitor, partial curve]
O=c1cc(-c2ccc([N+](=O)[O-])cc2)c2cc3c(cc2[nH]1)OCCO3	inactive
O=C(O)CNC(=O)/C(=C\c1ccc2c(c1)OCO2)NC(=O)c1ccc(Br)cc1	inactive
